Test results reported in PubChem BioAssay AID1347428 (National Center for Advancing Translational Sciences (NCATS), 2020).
Hit rate of the full screen: of about 91,000 compounds, about 290 (0.32%) were called active. Inconclusive means that the source gave no clear call. Such entries were picked first, then a sample of the others. Calls come from the whole dose curve; as a rule, active = well fitted inhibition curve with a large enough effect; inconclusive = small, poorly fitted or top-dose-only effect; inactive = no such curve, though single readings can be large or run the other way. Potencies beside an inconclusive call are fits to weak or partial responses and may not hold up.

Each molecule was assayed against Single-stranded DNA cytosine deaminase (Homo sapiens) (UniProt Q9GZX7) (assay: Primary qHTS assay for inhibitors of Activation Induced Cytidine Deaminase (AID): AID signal). Conditions: AID deamination FRET fluorescence, UDG-coupled, 4 h; activity change, negative = inhibition: at 115 µM (top of the series).
% is set by controls: 0 for no effect and ±100 for the full control effect; potency is the fitted concentration of half-maximal effect; tags give direction and shape of the fitted curve.
Note: nearly all actives have a fitted effect of over 25% in size.

UniProt Q9GZX7, sequence (Q9GZX7 whole entry, looked up): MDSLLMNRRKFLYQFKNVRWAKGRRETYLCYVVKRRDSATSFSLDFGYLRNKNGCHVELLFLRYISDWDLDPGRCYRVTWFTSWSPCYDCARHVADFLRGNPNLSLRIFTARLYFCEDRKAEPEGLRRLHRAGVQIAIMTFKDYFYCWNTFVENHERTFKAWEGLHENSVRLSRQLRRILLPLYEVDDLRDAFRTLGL

| SMILES | Potency | activity change, negative = inhibition |
| --- | --- | --- |
| c1ccc(Nc2c(-c3c[nH]c4ccccc34)nc3ccccn23)cc1 | inconclusive: 50.1 µM [inhibitor, partial curve, poor fit] | – |
| CN(Cc1ccccc1)C(=O)Nc1ccc2c(c1)N(C)C(=O)c1ccccc1S2 | inconclusive: 20 µM [inhibitor, full curve, poor fit] | – |
| CCc1ccc(NC(=O)CCn2nc(-c3ccccc3OC)c3c(C)cc(C)nc32)cc1 | inconclusive: 15.8 µM [inhibitor, full curve, poor fit] | – |
| COc1ccc(OC)c(NC(=O)CSc2nnc3ccc4ccccc4n23)c1 | inconclusive: 10 µM [inhibitor, partial curve, poor fit] | – |
| O=C(NCc1ccccc1Cl)c1ccc(CSCc2ccccc2Cl)o1 | inconclusive: 50.1 µM [inhibitor, partial curve, poor fit] | – |
| Cc1ccc(-n2ncc(C(=O)NCc3cccs3)c2C2CCN(C(=O)OC(C)(C)C)CC2)c(C)c1 | inconclusive: 56.2 µM [inhibitor, partial curve, poor fit] | – |
| CCc1cccc(NC(=O)CCC(=O)N2CCSc3ccccc32)c1 | inconclusive: 100 µM [inhibitor, partial curve, poor fit] | – |
| CCOc1ccc(-c2nc(CSCC(=O)N3CCN(c4ccc(F)cc4)CC3)c(C)o2)cc1 | – | inactive: -7.86% |
| CCC(C(=O)Nc1cc(OC)cc(OC)c1)n1nc(-c2ccc(C)c(C)c2)ccc1=O (stereo unspecified) | inconclusive: 56.2 µM [inhibitor, partial curve, poor fit] | – |
| Fc1cccc(-n2ncc3c2ncn2nc(COc4ccc(Cl)cc4)nc32)c1 | inconclusive: 89.1 µM [inhibitor, partial curve, poor fit] | – |
| Cc1ccc(C)c(N2CCN(C(=O)c3ccc(CS(=O)(=O)c4ccc(Br)cc4)o3)CC2)c1 | inconclusive: 10 µM [inhibitor, full curve, poor fit] | – |
| CCCN(C(=O)CCc1nc(-c2ccccc2F)no1)c1ccc(CC)cc1 | inconclusive: 28.2 µM [inhibitor, partial curve, poor fit] | – |
| Cc1ccc(CNC(=O)c2c3c(nc4ccccc24)C(=O)N(C2CCCCC2)C3)cc1 | inconclusive: 56.2 µM [inhibitor, partial curve, poor fit] | – |
| Cc1ccc(-n2ncc(C(=O)NCCN3CCc4ccccc4C3)c2C2CCN(C(=O)OC(C)(C)C)CC2)cc1 | inconclusive: 22.4 µM [inhibitor, full curve] | – |
| CCN(C(=O)c1oc2ccc(S(=O)(=O)N3CCCCCC3)cc2c1C)c1ccccc1 | inconclusive: 31.6 µM [inhibitor, full curve, poor fit] | – |
| COc1ccc(N2CC(C(=O)O)CC2=O)cc1OC (stereo unspecified) | – | inactive: -4.05% |
| CCOC(=O)c1cn[nH]c1S(=O)(=O)N(CC(C)C)CC(C)C | – | inactive: 3.25% |
| CCc1ccc(NC(=O)Nc2ccc3sc(NS(=O)(=O)c4ccccc4)nc3c2)cc1 | inconclusive: 89.1 µM [inhibitor, single point] | – |
| O=C(NCC(c1cccnc1)N1CCc2ccccc21)c1cccc(C(F)(F)F)c1 (stereo unspecified) | inconclusive: 56.2 µM [inhibitor, partial curve, poor fit] | – |
| CCc1ccc(CNC(=O)c2ccc(-c3nc(CS(=O)(=O)c4ccccc4)c(C)o3)cc2)cc1 | – | inactive: 1.98% |
| CC(NC(=O)CCCn1c(=O)c2cccn2c2cccnc21)c1ccccc1 (stereo unspecified) | – | inactive: -24.9% |

| SMILES | Potency | activity change, negative = inhibition |
| --- | --- | --- |
| COc1ccc(C(C)C)cc1S(=O)(=O)NCCc1c(C)[nH]c2ccc(C)cc12 | inconclusive: 22.4 µM [inhibitor, partial curve, poor fit] | – |
| CCCNC(=O)C1CCC(Cn2c(=O)c3sccc3n(CC(=O)N3CCC(C)CC3)c2=O)CC1 (stereo unspecified) | inconclusive: 100 µM [inhibitor, partial curve, poor fit] | – |
| COc1cccc(C2C(C(=O)Nc3ccc(C)cc3C)=C(C)Nc3c(C(=O)Nc4cccc(C)c4)cnn32)c1OC (stereo unspecified) | inconclusive: 56.2 µM [inhibitor, partial curve, poor fit] | – |
| CCC(Sc1nncn2c1cc1occc12)C(=O)Nc1ccc(C)c(Cl)c1 (stereo unspecified) | inconclusive: 50.1 µM [inhibitor, partial curve, poor fit] | – |
| CC(C)NC(=O)C(C)ONC(=O)c1cccc(C(F)(F)F)c1 (stereo unspecified) | – | inactive: 1.58% |
| CCOc1ccc(-c2nc(CS(=O)Cc3cc(C)ccc3C)cs2)cc1OC (stereo unspecified) | – | inactive: 3.25% |
| Cc1cccc(OCc2ccc(-c3nc(C#N)c(N4CCC(C(N)=O)CC4)o3)o2)c1 | inconclusive: 25.1 µM [inhibitor, partial curve, poor fit] | – |
| CCCCN(Cc1ccccc1)C(=O)CN(C)S(=O)(=O)c1ccc2c(c1)c(=O)n(C)c(=O)n2C | inconclusive: 56.2 µM [inhibitor, partial curve, poor fit] | – |
| Cc1ccc(Cl)cc1-n1ncc2c(=O)n(CC(=O)Nc3ccc(F)cc3Cl)cnc21 | – | inactive: 2.25% |
| COc1ccc(Nc2ccc3cc(S(=O)(=O)N4CCCC4)ccc3n2)cc1Cl | inconclusive: 39.8 µM [inhibitor, single point] | – |
| Cc1ccc(NC(=O)C2CCCN(S(=O)(=O)c3cccc4cccnc34)C2)cc1Cl (stereo unspecified) | inconclusive: 20 µM [inhibitor, full curve, poor fit] | – |
| O=C(C1CC1)N(Cc1ccc2c(c1)CN(S(=O)(=O)c1ccc(F)cc1)CCO2)c1ccccc1 | inconclusive: 50.1 µM [inhibitor, partial curve, poor fit] | – |
| Cc1ccc(C2CCN(C(=O)c3cnn(-c4ccccc4Cl)c3C3CCN(C(=O)OC(C)(C)C)CC3)C2)cc1 (stereo unspecified) | inconclusive: 56.2 µM [inhibitor, partial curve, poor fit] | – |
| O=C(CN1CCN(c2nc(-c3ccccn3)nc3scc(-c4ccccc4)c23)CC1)N1CCCC1 | inconclusive: 50.1 µM [inhibitor, partial curve, poor fit] | – |
| O=C(c1ccc2c(c1)OCO2)c1cn(Cc2ccc(F)cc2)c2ccccc2c1=O | inconclusive: 31.6 µM [inhibitor, full curve] | – |
| COc1cc(/C=C(\C#N)c2ccc(Cl)cc2)c(Br)cc1OCc1ccccc1 | – | inactive: -5.6% |
| COCCCNc1ncnc2c1c(-c1ccccc1)cn2-c1ccc(C)c(Cl)c1 | inconclusive: 20 µM [inhibitor, partial curve, poor fit] | – |
| Cc1ccc(CC(=O)N(Cc2nc(-c3ccc(C)cc3)no2)C(C)C)cc1 | inconclusive: 56.2 µM [inhibitor, partial curve, poor fit] | – |
| O=C(CCc1nc(-c2ccccc2F)no1)Nc1cccc(C(F)(F)F)c1 | inconclusive: 89.1 µM [inhibitor, single point] | – |
| COc1ccc(N2CCN(CC(O)COc3ccccc3C(C)(C)C)CC2)cc1 (stereo unspecified) | inconclusive: 39.8 µM [inhibitor, single point] | – |
| CCCCNc1sc(S(=O)(=O)CC)nc1S(=O)(=O)c1ccc(C)cc1 | inconclusive: 44.7 µM [inhibitor, partial curve, poor fit] | – |

| SMILES | Potency | activity change, negative = inhibition |
| --- | --- | --- |
| Cc1nc2ccc(C(=O)OC(C)C(=O)NC3CCCCCC3)cc2nc1C (stereo unspecified) | – | inactive: 8.28% |
| COc1ccc(-n2c(SCc3nc(-c4ccc(C)cc4)no3)nnc2-c2ccncc2)cc1 | inconclusive: 79.4 µM [inhibitor, partial curve, poor fit] | – |
| CCc1ccccc1Nc1nn2c(=O)c3ccc(C(=O)NCCc4ccccc4)cc3nc2s1 | inconclusive: 12.6 µM [inhibitor, full curve, poor fit] | – |
| Cc1cc(C)cc(N(C)S(=O)(=O)c2nnc(NC(=O)COc3ccc(C)c(C)c3)s2)c1 | inconclusive: 20 µM [inhibitor, single point] | – |
| Cc1nc(-c2ccc(F)cc2)sc1CCNC(=O)c1ccccc1 | – | inactive: -15.3% |
| CCOc1ccc2c(c1)O/C(=C\c1ccc(OS(C)(=O)=O)c(OC)c1)C2=O | – | inactive: 5.13% |
| CCN(CC)C(=O)COc1cc2oc(=O)cc(C)c2cc1Cl | – | inactive: -1.9% |
| O=C(CSc1ccc2c(c1)OCCO2)Nc1ccc2c(c1)OCCO2 | – | inactive: -9.11% |
| O=C(/C=C/c1ccc(OCc2ccccc2)cc1)c1cccnc1 | – | inactive: -9.09% |
| CCOc1ccc(CCNC(=O)C2CCCN(c3nnc(C)c4c(C)n(-c5ccccc5)nc34)C2)cc1 (stereo unspecified) | inconclusive: 2.82 µM [inhibitor, full curve, poor fit] | – |
| Cc1cccc(CNC(=O)c2ccc(-c3nc(CS(=O)(=O)c4ccccc4)c(C)o3)cc2)c1 | inconclusive: 28.2 µM [inhibitor, single point] | – |
| Cc1noc2ncnc(Nc3ccc(F)cc3)c12 | – | inactive: 12% |
| Cc1cccc(NC(=O)C(c2ccccc2)N2Cc3ccccc3C2=O)c1C (stereo unspecified) | inconclusive: 89.1 µM [inhibitor, single point] | – |
| Cc1ccc(Cl)cc1NC(=S)NCCSc1ccc(Cl)cc1 | – | inactive: -10.3% |
| COc1ccc(NS(=O)(=O)c2ccc3c(c2)CCN3C(=O)C2CC2)cc1OC | inconclusive: 10 µM [inhibitor, full curve, poor fit] | – |
| CCn1cc(C(=O)N2CCN(c3ccccc3)CC2)c(=O)c2cc(S(=O)(=O)N(C)C3CCCCC3)ccc21 | inconclusive: 56.2 µM [inhibitor, partial curve, poor fit] | – |
| COC(=O)C(/C(C)=N/C(NC(C)=O)(C(F)(F)F)C(F)(F)F)C(NC(C)=O)(C(F)(F)F)C(F)(F)F (stereo unspecified) | – | inactive: -2.6% |
| COC(=O)c1ccc(Cn2c(=O)cc(C)c3c(C)nn(C)c32)cc1 | inconclusive: 15.8 µM [inhibitor, partial curve, poor fit] | – |
| Cc1cccc(Nc2nc(-c3ccccc3)nc3ccccc23)c1 | inconclusive: 44.7 µM [inhibitor, partial curve] | – |
